Values quoted from earlier work in US10176292B2, “STING crystals and modulators” (MEMORIAL SLOAN-KETTERING CANCER CENTER, priority 2013, dated 2019).

Biological target: hSTING (Homo sapiens, UniProt Q86WV6)
Conditions: Conlon et al. 2013, Kim et al.; cited from earlier work

Chain of UniProt Q86WV6 (Q86WV6 whole entry): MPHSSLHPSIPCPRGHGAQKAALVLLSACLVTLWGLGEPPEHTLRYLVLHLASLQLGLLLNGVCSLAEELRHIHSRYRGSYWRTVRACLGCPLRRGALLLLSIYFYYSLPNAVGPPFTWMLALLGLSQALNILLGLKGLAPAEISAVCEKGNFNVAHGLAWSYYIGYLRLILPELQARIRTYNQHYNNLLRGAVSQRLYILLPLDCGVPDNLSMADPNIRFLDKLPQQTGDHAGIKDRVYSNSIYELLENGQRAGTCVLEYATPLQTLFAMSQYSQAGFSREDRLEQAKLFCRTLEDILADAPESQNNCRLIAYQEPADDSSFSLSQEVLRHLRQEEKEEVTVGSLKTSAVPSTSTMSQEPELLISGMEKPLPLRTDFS

Cc1ccc2c(=O)c3cccc(CC(=O)O)c3oc2c1C [DMXAA, 5,6-dimethylxanthenone-4-acetic acid]
effect on hSTING: no effect on hSTING
